Measurements from the antibiotic and cytotoxicity screens of Wong et al. (2023).
Some of the results follow.

Tests used:
HSkMC = human skeletal muscle cells; experiment: cytotoxicity call (relative viability < 0.9); details: 10 µM
HepG2 = experiment: cytotoxicity call (relative viability < 0.9); details: 10 µM
S. aureus RN4220 = experiment: growth inhibition call (relative growth <= 0.2); details: 50 µM

| SMILES | cytotoxicity call (HSkMC) | cytotoxicity call (HepG2) | growth inhibition call (S. aureus RN4220) |
| --- | --- | --- | --- |
| C[C@@H]1CN([C@H](C)CO)C(=O)c2cc(C3=CCCC3)cnc2O[C@H]1CN(C)C(=O)c1ccc2c(c1)OCO2 | inactive | inactive | inactive |
| CO[C@@H]1CN(C)C(=O)c2cc(NC(=O)c3cc(C)on3)ccc2OC[C@@H](C)N(C(=O)C2CCC2)C[C@H]1C | inactive | inactive | inactive |
| COc1ccc(CN(C)C[C@@H]2Oc3c(NS(C)(=O)=O)cccc3C(=O)N([C@H](C)CO)C[C@@H]2C)cc1 | inactive | inactive | inactive |
| C[C@H]1CCCCO[C@@H](CN(C)Cc2ccccc2)[C@@H](C)CN([C@@H](C)CO)C(=O)c2cc(NC(=O)NC3CCCCC3)ccc2O1 | inactive | inactive | inactive |
| C[C@H](CO)N1C[C@H](C)[C@@H](CN(C)S(=O)(=O)c2ccc(F)cc2)Oc2ccc(NS(C)(=O)=O)cc2C1=O | inactive | inactive | inactive |
| COc1ccc(S(=O)(=O)N(C)C[C@H]2Oc3ccc(NC(=O)CCCN(C)C)cc3CC(=O)N([C@H](C)CO)C[C@@H]2C)cc1 | inactive | inactive | inactive |
| C[C@H]1CN([C@@H](C)CO)S(=O)(=O)c2ccc(-c3cccc(C(=O)N(C)C)c3)cc2O[C@@H]1CN(C)C(=O)Cc1ccccn1 | inactive | inactive | inactive |
| Cc1ccccc1OCC(O)CO (stereo not given) | inactive | active | inactive |
| C[C@H]1CN([C@@H](C)CO)C(=O)c2cccc(NS(=O)(=O)c3cccs3)c2O[C@H]1CN(C)Cc1ccc(-c2ccccc2)cc1 | inactive | inactive | inactive |
| COc1[nH]sc(=NN)c1C#N | inactive | inactive | inactive |
